The text below walks through data of PMC12136788.

The other results are listed elsewhere or left out.

The chains are these.
T1: UNK ZnF1-3 (human, UniProt Q9C0B0 31-174)
T1 sequence: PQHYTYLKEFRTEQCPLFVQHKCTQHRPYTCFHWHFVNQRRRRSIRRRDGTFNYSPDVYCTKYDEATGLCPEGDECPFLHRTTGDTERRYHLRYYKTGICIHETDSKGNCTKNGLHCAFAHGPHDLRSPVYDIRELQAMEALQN

B1: 128107968_128108088_1263_CDS_ENSMUSG00000049858_ENSMUST00000054764|mouse|control|control (ssRNA)
RNA: GGGAGUUCUACAGUCCGACGAUCAAAGUUUACCGUGUCCCAGUCCACAGAUGGAGAAAAGCCUUUGUAAUCCCGCCUCUGCCAGUGACUAUAACUCUCCUCUGAUUCCACACUCACUCUGCCGAGCCAUUUGACAUGACGGGCCAACAGAGGAUUGAGCAUCA
B2: chr2:198351390:198351391:-_ENSG00000144381_ENST00000345042|hu_hu|hu_hu_hu_mus_False|88_88 (ssRNA)
RNA: GGGAGUUCUACAGUCCGACGAUCUCAUUCCCACCCUCCACAGAAAGGCUGCUUAACAACUCUCAUGUGGUGACACAGCGCUACAGUCCUGAUGCUCACAGAACAGUAGAGAUGCCUCAGUGAUUUAAGUUGAAAGCAGGACACCAACAGAGGAUUGAGCAUCA
B3: chr5:134143580:134143581:+_ENSG00000145833_ENST00000354283|hu_hu|motif|central (ssRNA)
RNA: GGGAGUUCUACAGUCCGACGAUCUCCUGCUCUUCCAGUCCGCCCUGCUCUGUGUACAUAAUCCUCAUAAUGGUUGGGGCAGCGGUAAUUUACUACAAGAAUCAGAUGUUUCACAUCUAGACCUCGGGCAGCAACAGAGGUAGCCAACAGAGGAUUGAGCAUCA
B4: 25101282_25103994_528_CDS_ENSMUSG00000001833_ENSMUST00000165594|mouse|control|control (ssRNA)
RNA: GGGAGUUCUACAGUCCGACGAUCAAUUUCUUUCAUUAUCUGCUUUUUAAACUGUUGGCAUUCCUCUGGUGUAAGUGUGUCUGCUUUGGCAAUUAAUGGGAUGAUAUUCACUUUUUCAUGCAAACGUUUCAUAAACUCAAUGUCCAACAGAGGAUUGAGCAUCA
B5: chr18:42480448:42480449:+_ENSMUSG00000024491_ENSMUST00000091920|mus_mus|motif|central (ssRNA)
RNA: GGGAGUUCUACAGUCCGACGAUCGAAGUGUUCGUUGAGCUUGGUAAUGUUGUUCAAUUCCUGGGGGAUUUUUUUCACCUCGGGUUUGGUGUUUGUAUAAUGAUUCUUCCUCAGGAAGCCUGGUUUACUUUGAUUGUUGUUCCCCAACAGAGGAUUGAGCAUCA
B6: 156518519_156521367_705_CDS_ENSG00000105983_ENST00000359422|human|control|control (ssRNA)
RNA: GGGAGUUCUACAGUCCGACGAUCUAUUCCAGGCCCCCUUGUUCCUUUUGGCAUUGCUGUUUCAUCAACCAAUAGGCAAAGAAUAUUACAAGCCACCAAGAGGACCGAGAUGGAUGUCUCAAUAAGAAGGAGAACCAUAACAGCCAACAGAGGAUUGAGCAUCA
B7: chr8:74858975:74858976:-_ENSG00000154582_ENST00000284811|hu_mus|hu_hu_hu_mus_True|1_108 (ssRNA)
RNA: GGGAGUUCUACAGUCCGACGAUCGACCUUGUACGUAAAAUACAUGCACACUUUUGAUAGCACAUGUGAGGGGAUCUCUCUAAAAUUGACCUCGUUGGUUUCAUUCUCAGCAAACUGACCUGGACCACUCAACAUAGCUUUUAUCAACAGAGGAUUGAGCAUCA
B8: chr14:78183846:78183847:+_ENSG00000119705_ENST00000557342|hu_hu|hu_hu_hu_mus_False|78_78 (ssRNA)
RNA: GGGAGUUCUACAGUCCGACGAUCUCUCAGAAAUCUUUCUUCAUCAGAUGUUUGAGCUGUUUGCGGAGCCUUUGCUCUUUGAGCUUGAACGUGGAUCUAUGGGAGGGAAAGCACUGUCAGAAAAGGUAAUUUUUUUUUUAAAGACAACAGAGGAUUGAGCAUCA
B9: chr4:76721835:76721836:+_ENSG00000138768_ENST00000264904|hu_mus|hu_hu_hu_mus_True|88_98 (ssRNA)
RNA: GGGAGUUCUACAGUCCGACGAUCGUUUGGCUGGGGUUCUGAGAUGCUCUGGAAUACUAACUCAUGUUUGCUAAUAAAUCCUAGUUUCUCUAUGAAAUUCUCUUUGCCAAUCCUCUUCUCUAUUAGUUGCUUUAGUUUCUCUUUCAACAGAGGAUUGAGCAUCA
B10: chr4:107908409:107908410:-_ENSMUSG00000034636_ENSMUST00000043616|mus_mus|FALSE|FALSE (ssRNA)
RNA: GGGAGUUCUACAGUCCGACGAUCUGAAACUGUAGAAUUUCAAGCACAAGUUAAGUUCAAACACUGAGAGAGAGAUUCCCUAAGAGACAAUAUUGAAGGAAGACCUUUCUUGCCUCAUAAGUUAAAAAUCACAAAACAAAUCAGCAACAGAGGAUUGAGCAUCA
B11: chr11:99071305:99071306:-_ENSMUSG00000037935_ENSMUST00000103133|mus_hu|FALSE|FALSE (ssRNA)
RNA: GGGAGUUCUACAGUCCGACGAUCAAGCCUUUGGUGGUGUGAUAUGGACAAGAAAAAAAAUUAAUACACAAACCACGUAACACCAUUAAAACCAAAAAACAUUUUUUCAUUAAAAAAAGUAUUUAGAACACACAAAACAAGGCACAACAGAGGAUUGAGCAUCA
B12: chr1:58468927:58468928:-_ENSMUSG00000026034_ENSMUST00000148330|mus_mus|FALSE|FALSE (ssRNA)
RNA: GGGAGUUCUACAGUCCGACGAUCAUUCUAUAAUUACUGAAAGAUGUUAUUUGGUUUGGCCAUGUAUUUAAUAAAGCAUCUAAAAAACAUAAAAUGUUUUACAAAUUAAGCUAUACAAAAUAACUUAAUUAAAAGCUAGACUGACAACAGAGGAUUGAGCAUCA
B13: chrX:71549762:71549763:+_ENSMUSG00000019087_ENSMUST00000019231|mus_mus|mus_mus_mus_hu_False|8_28 (ssRNA)
RNA: GGGAGUUCUACAGUCCGACGAUCAAACCCGUGUACUUCUUAUUGUUAGCACAACAUCACCAGAAAACGAUAACGACAGCCAAGCAGGACAGACAGUUAAGUAGUACUUCCACACCUCCAAACUCAGAGGAACCUCAAACCUUACAACAGAGGAUUGAGCAUCA
B14: chr4:174295105:174295106:+_ENSG00000164105_ENST00000296504|hu_mus|FALSE|FALSE (ssRNA)
RNA: GGGAGUUCUACAGUCCGACGAUCUUGUGCUUUAUUUAGACCUGGUCUGGUUGGAAGCUUGAAGUGUCUUUUGUAUCUUCUAAGUGUAUUUACUUGUAAUUGGUACAAAUCAACCUCUGGAGUGUCGAUGUCCUGAACAGGCGACAACAGAGGAUUGAGCAUCA
B15: chr22:19452774:19452775:-_ENSG00000070010_ENST00000399523|hu_hu|hu_hu_hu_mus_False|1_48 (ssRNA)
RNA: GGGAGUUCUACAGUCCGACGAUCCUUCUCAUUGUAGUUGAUAGCAAUCACAUCUCCAGUCGUCAGACAGGCGAAGUUUCUCAAUGCGUUUUCUAAUACCGCUUUAGGGUUGGUAAUAUCCAGGAAGUCUGGGCUCUGAGGUUGCAACAGAGGAUUGAGCAUCA
B16: 225707191_225718299_805_CDS_ENSG00000154380_ENST00000366843|human|control|control (ssRNA)
RNA: GGGAGUUCUACAGUCCGACGAUCCCUUUCUCUUUCCAUUCUUUCUCGCUCCAGCCUUUCCCGCUCCAGCUCCUUUUGCCGUUGCUGUUCUUGUAGUUGUCUUCUUUGAAUUUCCAAUUCUUCUUGGGAUGGGCCAUUUUGAACCAACAGAGGAUUGAGCAUCA
B17: 172841103_172841223_927_CDS_ENSG00000128708_ENST00000264108|human|control|control (ssRNA)
RNA: GGGAGUUCUACAGUCCGACGAUCUGCCUCUAUCGCCAUAUCUUCAUUGAAUCCUUGCAUUAAUUUUUCCCGGGAAAAACAGGGCAAAUCUUGACAAAGCUUCACAAGCACAAAGUCUCGUAAUUUCACAUAGCUUUUGGAUGGCAACAGAGGAUUGAGCAUCA
B18: chr6:53156713:53156714:-_ENSG00000012660_ENST00000304434|hu_mus|FALSE|FALSE (ssRNA)
RNA: GGGAGUUCUACAGUCCGACGAUCAACAGAACAGACAAACGUAGGGAUGUAAUUGUCCAGGAGGAACCAUCCUUUGACUCUUGUAUCUCGGGGGCCCAGGAAGGCCUUGAAAUAGGUACUGAGUGACGCAUCGAAAUGUUCCAUCAACAGAGGAUUGAGCAUCA
B19: chr4:95690885:95690886:+_ENSMUSG00000028572_ENSMUST00000156910|mus_mus|mus_mus_mus_hu_False|1_108 (ssRNA)
RNA: GGGAGUUCUACAGUCCGACGAUCUUUAUUUUUAGAAAAAUACCAUGCUAAAAUAUUUUCAAAGGCUUAUUUUAUUUUACCAGAAGUCACAGGCAAGCAGACACUACAAGAAUAUAUGAAAAUGAAACUCAACAAUAAAAUGUACAACAGAGGAUUGAGCAUCA
B20: chr1:109605286:109605287:-_ENSG00000197780_ENST00000461096|hu_mus|hu_hu_hu_mus_True|28_108 (ssRNA)
RNA: GGGAGUUCUACAGUCCGACGAUCAAGAACAAUAACAACAUUCAGUAACCUCUUUAAAUGCAAUUAUCCUUAUUAUAAGCUAAGCAGAAUAAUAAUUUAAUACCGUAAGUAAAUACAACACAAAGCCUGAACCGCGAAAAUGGUCAACAGAGGAUUGAGCAUCA
B21: chr2:179515052:179515053:+_ENSMUSG00000000305_ENSMUST00000000314|mus_hu|mus_mus_mus_hu_False|1_78 (ssRNA)
RNA: GGGAGUUCUACAGUCCGACGAUCGCUGUCCCAUGCAGUCACCGUGAACGCCACCUGCUCUGAGGGGACCUGCAGCUCCCGGGUGGCGAAGACUGUCCCAUCUGCCCCAACUUUGAAGUCCAUGCUGUUGGUCUCAUACUGCAUCAACAGAGGAUUGAGCAUCA
B22: chr18:211299:211300:+_ENSG00000101557_ENST00000383589|hu_mus|FALSE|FALSE (ssRNA)
RNA: GGGAGUUCUACAGUCCGACGAUCAGAUUAUAGAAAUGUUCAACAACAACAACAAAAACAUUCACACCUAAGCAUAAAUAGCUAAAUUGAAGAUUACUGUUCACUUUCUUCUUCCAUUAUUUCAACUCUUCGAGGCCCAUAAAGCAACAGAGGAUUGAGCAUCA

This assay has as its target T1, UNK ZnF1-3. Description: nsRBNS (natural sequence RNA bind-n-seq); RBNS binding buffer (assumed for nsRBNS): 25 mM Tris pH 7.5, 150 mM KCl, 3 mM MgCl2, 0.01% Triton X-100, 500 ug/ml BSA, 20 U/ml SUPERase-In, 4 C; UNK is unkempt and MSI1 is Musashi-1; names of the RNAs are library labels; protein concentration not given here; high values mean tight binding.
B1 registered a binding signal of 1.12 enrichment R.
Take B2: the binding signal was 1.14 enrichment R.
As for B3, the binding signal turned out to be 1.88 enrichment R.
For B4, the binding signal amounted to 0.567 enrichment R.
Consider B5, for which the binding signal was 0.4 enrichment R.
The molecule B6 displayed a binding signal of 1.08 enrichment R.
Molecule B7 showed a binding signal of 0.804 enrichment R.
As to B8, the binding signal is 1.61 enrichment R.
Molecule B9 returned a binding signal of 0.414 enrichment R.
For B10, the binding signal is 1.03 enrichment R.
Under B11 stands 2.43 enrichment R; under B12, 0.967 enrichment R.
Regarding B13, the binding signal worked out at 1.43 enrichment R.
Molecule B14 displayed a binding signal of 0.475 enrichment R.
Molecule B15 registered a binding signal of 0.724 enrichment R.
Turning to B16, the binding signal was 0.249 enrichment R.
In the case of B17 it was 1.17 enrichment R; in that of B18, 0.971 enrichment R.
For B19, the binding signal worked out at 1.45 enrichment R.
For the molecule B20, the binding signal was determined as 1.16 enrichment R.
B21 yielded a binding signal of 0.706 enrichment R.
In turn, B22 yielded a binding signal of 0.538 enrichment R.
